Assay results from patent US20230056881A1 (Merck KGaA, published 2023).

Target: T1, human PD-L1 (human, UniProt Q9NZQ7)
T1 construct: whole, on cells; also called Programmed Death Ligand 1; HEK/PD-L1 cells
Assay: FACS on HEK cells stably transfected to express human PD-L1

Chain of human PD-L1 (Q9NZQ7 19-290): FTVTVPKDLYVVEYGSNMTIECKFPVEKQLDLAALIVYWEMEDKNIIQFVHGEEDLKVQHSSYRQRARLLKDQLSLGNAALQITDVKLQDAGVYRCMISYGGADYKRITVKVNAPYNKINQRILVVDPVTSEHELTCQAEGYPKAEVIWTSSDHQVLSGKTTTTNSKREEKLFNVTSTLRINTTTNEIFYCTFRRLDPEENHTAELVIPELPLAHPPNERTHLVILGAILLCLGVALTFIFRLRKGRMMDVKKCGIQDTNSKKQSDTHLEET

binding result: no binding
B1: anti-PD-L1(mut)/TGFβ Trap (other)
heavy: EVQLLESGGGLVQPGGSLRLSCAASGFTFSMYMMMWVRQAPGKGLEWVSSIYPSGGITFYADSVKGRFTISRDNSKNTLYLQMNSLRAEDTAIYYCARIKLGTVTTVDYWGQGTLVTVSSASTKGPSVFPLAPSSKSTSGGTAALGCLVKDYFPEPVTVSWNSGALTSGVHTFPAVLQSSGLYSLSSVVTVPSSSLGTQTYICNVNHKPSNTKVDKRV[sequence of human IgG1 Fc omitted]GGGGSGGGGSGGGGSGGGGSGIPPHVQKSVNNDMIVTDNNGAVKFPQLCKFCDVRFSTCDNQKSCMSNCSITSICEKPQEVCVAVWRKNDENITLETVCHDPKLPYHDFILEDAASPKCIMKEKKKPGETFFMCSCSSDECNDNIIFSEEYNTSNPD
light: QSALTQPASVSGSPGQSITISCTGTSSDVGGYNYVSWYQQHPGKAPKLMIYEVSNRPSGVSNRFSGSKSGNTASLTISGLQAEDEADYYCSSYTSSSTYVFGTGTKVTVLGQPKANPTVTLFPPSSEELQANKATLVCLISDFYPGAVTVAWKADGSPVKAGVETTKPSKQSNNKYAASSYLSLTPEQWKSHRSYSCQVTHEGSTVEKTVAPTECS
notes: also called anti-PD-L1(mut)/TGFβ Trap fusion protein; TGFβ Trap control
